The whole screen tested about 52,000 compounds, of which about 4,300 (8.3%) were called active. Rule as the data show it: active = survival mostly below about 52% (no sharp cut-off); inactive = mostly above about 56%. Some of the results follow.
system: DeltatarO mutant; assay: growth inhibition of S. aureus wild type versus tarO mutant, primary screen, teichoic acid synthesis inhibitors, RN4220, OD600 (AID 463173); conditions: OD600, 18 h, stronger effect = lower value, screened at 18.75 µg/mL (by protocol)

Row | SMILES | survival
1 | Cc1ccc(N2CC(C)Cn3c2nc2c3c(=O)n(CC(=O)O)c(=O)n2C)cc1 (stereo unspecified) | inactive: 83%
2 | COc1ccc(Cn2nnnc2CN2CCN(C)CC2)cc1 | inactive: 102%
3 | CCOC(=O)c1c(SCC(=O)Nc2nc3ccc(C)cc3s2)nc(=O)[nH]c1C | inactive: 70%
4 | CC(C)(C)C1CCc2oc3ccc(NS(=O)(=O)c4cc(Cl)ccc4Cl)cc3c2C1 (stereo unspecified) | inactive: 73%
5 | Cc1cccc(CSc2cn(CC(=O)N3CCCCC3)c3ccccc23)c1 | inactive: 76%
6 | CCCC(=O)OC1=CN(Cc2ccccc2)S(=O)(=O)c2ccccc21 | inactive: 67%
7 | O=C(Cn1cc(SCc2cccc(F)c2)c2ccccc21)N1CCOCC1 | inactive: 74%
8 | CN1C(=O)N(C)C2C1N(C)S(=O)(=O)N2C (stereo unspecified) | inactive: 94%
9 | COc1cc(OC)c(NC(=O)CSc2nccn2C)cc1Cl | inactive: 73%
10 | C/C(=N/NC(N)=S)c1ccc(Br)s1 | inactive: 112%
11 | Cc1ccc(CNC(=O)c2ccc(-n3c(C)cc4c3CCCC4)cc2)cc1 | inactive: 78%
12 | CC1CCN(c2oc(-c3cccs3)nc2S(=O)(=O)c2ccc(Cl)cc2)CC1 | active: 17%
13 | Cc1ccc(OCC(=O)Nc2ccc3nc(SCC(=O)N4CCCC4)sc3c2)cc1 | inactive: 90%
14 | O=C(CSc1nc2cc(C(=O)NC3CCCC3)ccc2c(=O)n1CC1CCCO1)c1ccc(F)cc1 (stereo unspecified) | inactive: 96%
15 | CNC(=O)c1ccc2c(c1)N=C(C)c1cc(C)ccc1S2 | inactive: 70%
16 | Cc1ccc(C)c(S(=O)(=O)c2cn(Cc3ccccc3)c3cc(F)c(F)cc3c2=O)c1 | inactive: 80%
17 | CCOc1ccc(N(c2nc(-c3ccc(OC)c(OC)c3)no2)c2nc(-c3ccc(OC)c(OC)c3)no2)cc1 | inactive: 73%
18 | O=C(Cn1ccn(-c2ccc(F)cc2)c(=O)c1=O)NCCc1ccccc1 | inactive: 57%
19 | CC(=O)N1c2ccc(S(=O)(=O)N3CCN(c4ccc(C)cc4C)CC3)cc2CC1C (stereo unspecified) | inactive: 91%
20 | CC1(C)CC(N=CC2=C(O)c3ccccc3C2=O)CC(C)(C)N1 | inactive: 95%
21 | CCOC(=O)c1cnc2ccc(C)cc2c1Nc1ccc(OCc2ccccc2Cl)cc1 | active: 2%
22 | COc1ccccc1N(CC(=O)NCCSCc1ccccc1Cl)S(C)(=O)=O | inactive: 59%
23 | O=C(Nc1ccccc1)N1CCc2ccccc21 | inactive: 74%

Row | SMILES | survival
24 | CCC(=O)N1N=C(c2ccc(OC)cc2)CC1c1cn(-c2ccccc2)nc1-c1cccs1 (stereo unspecified) | inactive: 148%
25 | O=C(Cn1c(=O)n(Cc2nc(-c3ccccc3)no2)c(=O)c2cc3c(cc21)OCO3)Nc1ccc(Cl)cc1 | inactive: 89%
26 | Cc1ccc(C)c(N2CCN(c3ccc(NC(=O)c4cccs4)cc3C(=O)O)CC2)c1 | inactive: 126%
27 | OC1CCN(Cc2nnnn2Cc2ccccc2)CC1 | inactive: 101%
28 | CCc1ccc(NC(=O)CC2C(=O)OCCN2CC)cc1 (stereo unspecified) | active: 5%
29 | S=c1n(CN2CCCCC2)c2ccccc2n1CN1CCCCC1 | inactive: 106%
30 | CCOC(=O)c1ccc(N2C(=O)c3n[nH]c(-c4cccs4)c3C2c2cccc(F)c2)cc1 (stereo unspecified) | inactive: 105%
31 | CCOc1ccccc1NC(=O)C(CC(C)C)NS(=O)(=O)c1ccc2c(c1)CCN2C(C)=O (stereo unspecified) | inactive: 78%
32 | CCc1ccccc1NC(=O)Cn1ncc2c(C)n(Cc3ccccc3F)c(C)c2c1=O | inactive: 86%
33 | CC(C)CNC(=O)CCSc1nc(-c2ccc3c(c2)OCO3)cc(C(F)(F)F)n1 | inactive: 68%
34 | COc1cc(Br)c(C2CC(=O)Nc3cc(OC)c(OC)c(OC)c32)cc1OC (stereo unspecified) | inactive: 96%
35 | CC1CCc2c(sc(NC(=O)CCCOc3ccc(C(C)(C)C)cc3)c2C(N)=O)C1 (stereo unspecified) | inactive: 60%
36 | CCOc1ccc(-n2c(=O)c3c(C)c(C)sc3n(CC(=O)c3ccccc3)c2=O)cc1 | inactive: 190%
37 | CCN(CC)CCCNC(=O)c1c(C)oc2ncn(CC(C)C)c(=O)c12 | inactive: 70%
38 | Cn1c(=O)n(C)c2cc(NS(=O)(=O)c3ccc(Br)cc3)c(NCc3ccccc3)cc21 | inactive: 57%
39 | CCc1ccc(-n2nc(C)c3c(C)cc(=O)n(CC(=O)Nc4ccc(C)c(F)c4)c32)cc1 | inactive: 116%
40 | CCNc1nnc(-c2ccccc2)s1 | inactive: 84%
41 | CN(C)c1ccc(NC(=O)CCSc2nc(-c3ccco3)cc(C(F)(F)F)n2)cc1 | inactive: 51%
42 | O=C(CN1C(=O)COc2ccc(S(=O)(=O)N3CCCCCC3)cc21)N1CCN(c2cccc(Cl)c2)CC1 | inactive: 95%
43 | CCOC(=O)c1c(NC(=O)CN(CC)CC)sc2c1CCC/C2=N\O | inactive: 65%
44 | CC(C)(C)OC(=O)N1CCC(c2c(C(=O)O)cnn2-c2ccc(F)cc2F)CC1 | inactive: 87%
45 | CCNC(=O)NC1(C(=O)Nc2ccc3c(c2)OCCO3)CCCCC1 | inactive: 99%
46 | O=C(CSc1nc(-c2ccccc2)[nH]c1-c1ccc(F)cc1)NC1CCCC1 | inactive: 67%

Row | SMILES | survival
47 | CCC(=O)N1CCc2cc(S(=O)(=O)NC(Cc3ccccc3)C(=O)Nc3ccc(Cl)cc3)ccc21 (stereo unspecified) | inactive: 66%
48 | CCCC(=O)Nc1c(C(=O)N2CCN(c3ccccc3)CC2)oc2ccccc12 | inactive: 85%
49 | COc1ccc(CCNC(=O)c2cc3cccc4c3n2CC(C)S4)c(OC)c1OC (stereo unspecified) | inactive: 76%
50 | CC(C)c1ccc(S(=O)(=O)Nc2cc3c(cc2NCc2ccccc2)n(C)c(=O)n3C)cc1 | active: 39%
51 | Cc1ccc(C(=O)NC2CCN(C(=O)NC3CCCCC3)CC2)cc1 | inactive: 71%
52 | CCc1ccccc1NC(=O)C1=CC(c2ccc3c(c2)OCO3)=NS(=O)(=O)N1C | inactive: 68%
53 | CCOc1ccccc1NC(=O)Cn1c(=O)n(Cc2ccco2)c(=O)c2cccnc21 | inactive: 75%
54 | CC(C)(C)c1ccc(C(=O)Nc2ccc3nc(SCC(=O)N4CCCC4)sc3c2)cc1 | inactive: 80%
55 | CCc1ccccc1N(C)C(=O)c1cc2c(s1)-c1c(C)cccc1OC2 | inactive: 60%
56 | Cc1ccc(Cn2c(C)c(CNCc3ccccc3F)c(C(=O)O)c2C)cc1 | inactive: 86%
57 | COC(=O)c1cccc(S(=O)(=O)N2CCOCC2)c1 | inactive: 100%
58 | CC(C)NS(=O)(=O)c1ccc(OCC(=O)N2CCN(c3cccc(Cl)c3)CC2)cc1 | inactive: 95%
59 | COc1cc(C2C(C(=O)Nc3ccccc3)=C(C)Nc3nc(SCC(=O)c4ccc(C)cc4)nn32)ccc1O (stereo unspecified) | inactive: 90%
60 | COC(=O)c1c(NC(=O)CCCOc2cccc(C)c2)sc2c1CCC(C)C2 (stereo unspecified) | active: 10%
61 | CCc1ccc(S(=O)(=O)c2nnn3c2nc(N2CCN(CC)CC2)c2sccc23)cc1 | inactive: 81%
62 | COc1ccccc1C(=O)Nc1ccc(-c2nc3cc(C)cc(C)c3o2)cc1 | inactive: 134%
63 | Cc1ccc(NC(=O)CSc2nc3ccc(NC(=O)c4cccc(Cl)c4)cc3s2)c(C)c1 | inactive: 82%
64 | CCOC(=O)c1ccc(N2C(=O)c3n[nH]c(-c4ccco4)c3C2c2cccc(F)c2)cc1 (stereo unspecified) | active: 12%
65 | Fc1ccc(-c2nnc(CN3CCN(c4ccccn4)CC3)o2)cc1 | inactive: 83%
66 | O=C(NCc1ccco1)c1nc2c(nnn2Cc2cccc(Cl)c2)c(=O)[nH]1 | inactive: 101%
67 | CCOC(=O)c1ccc(NC(=O)NC2CC3CCC(C2)N3C(=S)NCc2ccco2)cc1 (stereo unspecified) | inactive: 102%
68 | CCCNS(=O)(=O)c1ccc(CCC(=O)NCC2CCCO2)cc1 (stereo unspecified) | inactive: 89%
69 | O=C1c2ccccc2C(=O)N1c1ncn[nH]1 | inactive: 94%

Row | SMILES | survival
70 | CC1Cc2ccccc2N1C(=O)CSc1nnnn1Cc1ccccc1 (stereo unspecified) | inactive: 91%
71 | O=C(NCc1cccc(Cl)c1)c1ccc2c(c1)nc1n2CCOC1 | inactive: 84%
72 | CC(=O)c1ccc(NC(=O)c2cn(C)c(=O)c3ccccc23)cc1 | inactive: 72%
73 | CCn1c(SC)nnc1C1CCCN(Cc2ccccc2)C1 (stereo unspecified) | inactive: 100%
74 | CN1C(=O)c2ccccc2Sc2ccc(NC(=O)NCc3ccccc3Br)cc21 | inactive: 51%
75 | O=C(C1CCCN(S(=O)(=O)c2cccs2)C1)N1CCN(c2ccccc2F)CC1 (stereo unspecified) | inactive: 85%
76 | O=C(Nc1ccc(F)cc1)N1CCCC(c2nc3c(nnn3Cc3ccccc3Cl)c(=O)[nH]2)C1 (stereo unspecified) | inactive: 88%
77 | Cc1nc2sc(C)c(C)n2c(=O)c1S(=O)(=O)NCCc1ccc(Cl)cc1 | inactive: 118%
78 | COc1cccc(CN2C(=O)C3(SCC(=O)N3c3ccc(F)cc3)c3ccccc32)c1 (stereo unspecified) | inactive: 74%
79 | COc1ccc(-c2nc3c(c(SCC(=O)Nc4cc(C)cc(C)c4)n2)Cc2c(CO)cnc(C)c2O3)cc1 | inactive: 80%
80 | CSc1ccc(CCNC(=O)c2ccc3c(c2)nc2n3CCC(C)C2)cc1 (stereo unspecified) | inactive: 83%
81 | CCOCCc1nn2c(=O)cc(COC(=O)c3ccccc3NC(=O)c3cccs3)nc2s1 | inactive: 58%
82 | CCc1ccccc1NC(=O)N1CC(CC)Oc2ccc(Cl)cc21 (stereo unspecified) | inactive: 44%
83 | COc1ccc(N2CCN(C(=O)c3c(C)nn(-c4ccc(F)cc4)c3-n3cccc3)CC2)cc1 | inactive: 69%
84 | Cc1cccc(N2CCN(C(=O)CCNS(=O)(=O)c3ccc4c(c3)CCN4C(=O)C3CC3)CC2C)c1 (stereo unspecified) | inactive: 75%
85 | O=C(NC1CC(=O)N(c2ccccc2)C1)c1cccs1 (stereo unspecified) | inactive: 94%
86 | CCOc1ccc2nc(NC3=NCCC(=O)N3)nc(C)c2c1 | inactive: 80%
87 | Cc1ccc2[nH]c3nc(NN)nnc3c2c1 | inactive: 77%
88 | Cc1cccc(C(=O)Nc2nc3c(s2)CCCC3)c1 | inactive: 67%
89 | COc1ccc(-c2nc(CCNC(=O)Cc3ccc(F)cc3)cs2)cc1 | inactive: 126%
90 | c1ccc(CNc2ncnc3[nH]ncc23)cc1 | inactive: 92%
91 | CCOC(=O)N1CCc2c(sc3c2c(=O)n(CCc2ccccc2)c(=O)n3Cc2ccc(C)cc2C)C1 | inactive: 71%
